From paper PMC8175350, “Drug repurposing screens identify chemical entities for the development of COVID-19 interventions” (Nature Communications, 2021)
Several values for one entry are separate records, joined by “and”; a condition that tells them apart may be missing. Equal entries are not always repeated. Where two headings read alike, the source gives them in different places. This continues a long series; more values of the same kind are listed elsewhere.

System: SARS-CoV-2
Type: cell-based
Conditions: HeLa-ACE2, replicate wells n=1-3

| Structure (SMILES) | %infected (concentration log[M] -6.09621) | %infected (concentration log[M] -6.57334) | %infected (concentration log[M] -7.05046) | %infected (concentration log[M] -8.0047) | %infected (concentration log[M] -6.4484) | %infected (concentration log[M] -6.9255) | %infected (concentration log[M] -7.4026) | %infected (concentration log[M] -7.8798) | %infected (concentration log[M] -8.48182) | %infected (concentration log[M] -8.95894) |
| --- | --- | --- | --- | --- | --- | --- | --- | --- | --- | --- |
| CCC(CC)COC(=O)[C@H](C)N[P@](=O)(OC[C@H]1O[C@@](C#N)(c2ccc3c(N)ncnn23)[C@H](O)[C@@H]1O)Oc1ccccc1 [Remdesivir] | -100.159% and -100.345% and -98.3858% | -92.2917% and -84.4831% and -83.5663% and -86.7867% and -95.3196% and -98.1415% and -96.6221% and -91.1676% and -87.7705% | -42.6135% and -4.7753% and -28.0619% and -19.0689% and -37.5548% and -30.7902% and -26.9855% and -34.3961% and -28.2794% | 8.73% and -1.514% and 10.2626% and 8.052% and 9.795% and 0.1568% and -9.185% and 9.12% and 15.1715% | – | – | – | – | – | – |
| COc1ccc(C[C@H](N)C(=O)N[C@H]2[C@@H](O)[C@H](n3cnc4c(N(C)C)ncnc43)O[C@@H]2CO)cc1 [Puromycin] | – | – | – | – | -1.769% and 4.74% and 2.092% and -22.3745% and -9.86% and -30.6458% and -12.4548% and -2.689% | 16.503% and 24.8671% and 7.596% and 10.4443% and -4.261% and -4.437% and 8.087% and 10.8457% and -1.191% | 8.129% and 3.2187% and 1.332% and 4.206% and 7.482% and 1.836% and 5.209% and -6.283% and -4.717% | 4.457% and 3.21% and 6.351% and -0.4188% and 2.19% and 8.65% and 15.3688% and 8.111% and 5.058% | – | – |
| Cc1cccc(/C=N/Nc2cc(N3CCOCC3)nc(OCCc3ccccn3)n2)c1 [Apilimod] | – | – | – | -65.1628% and -50.4241% | – | – | – | – | -30.5207% and -37.7731% and -31.008% and -19.9214% and -34.8787% and -24.3256% and -31.1044% and -49.3084% and -24.1686% | -15.5766% and -9.504% and -5.148% and -21.2775% and -12.3754% and -4.023% and -19.893% and -22.0413% and -25.061% |
